# Laboratory results taken from PubChem BioAssay (Tox21).
# Values joined by “and” are separate entries in the source; they are usually repeats but may differ in a detail not shown here. Identical values can stand only once. Inconclusive results, whose numbers are uncertain, are shown with a selection of clear calls. For part of these data: Where the call is inconclusive, the potency comes from a doubtful curve fit. Active and inactive are the calls of the source. Unless noted, calls come from the whole dose curve; as a rule, active = well fitted curve in the direction sought with a large enough effect in the repeat runs; inconclusive = weak or mixed curves; inactive = no such curve, though single readings can be large; an effect the other way counts as inactive or inconclusive.
# Legend:
# [1] = biological target: Aryl hydrocarbon receptor (Homo sapiens) (UniProt P35869); test: qHTS assay to identify small molecule that activate the aryl hydrocarbon receptor (AhR) signaling pathway (AID 743085); note: potency is the fitted concentration of half-maximal effect; nearly all actives have a fitted effect of over 15% in size
# Outline: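 Compounds were tested in HepG2 hepatocellular carcinoma cells harbouring a stably integrated luciferase gene under control of 20 DREs. Increased reporter signal after 24 h treatment at 37C was taken as AhR activation.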
# [2] = biological target: Peroxisome proliferator-activated receptor gamma (Homo sapiens) (UniProt P37231); test: qHTS assay to identify small molecule antagonists of the peroxisome proliferator-activated receptor gamma (PPARg) signaling pathway (AID 743191; calls by dose curve; note: nearly all actives have a fitted effect of over 30% in size; note: potency is the fitted concentration of half-maximal effect; for ratio activity, negative = inhibition: % is set by controls: 0 for no effect and ±100 for the full control effect); details: HEK293H PPARg-UAS-bla, beta-lactamase ratio, antagonist, 17 h; ratio activity, negative = inhibition: at 62.6 µM (top of the series) unless noted
# Outline: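 GeneBLAzer PPARg UAS-bla HEK293H cells, 5 h post-plating, exposed to compounds 17 h at 37C. LiveBLAzer B/G FRET substrate added for 1 h at room temperature; beta-lactamase reporter read by fluorescence intensity.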
# [3] = qHTS assay for small molecule activators of the heat shock response signaling pathway (AID 743210; active = well fitted activation curve with a large enough effect in the signal ratio in the repeat runs, with a control signal flat, not every such curve was filed as active; inconclusive = weak or mixed curves; the % refers to the signal ratio; note: potency is the fitted concentration of half-maximal effect); details: HeLa HSE-bla reporter, beta-lactamase ratio, 5 h; activation: at 62.6 µM (top of the series)
# Outline: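 HSE-bla HeLa cells (beta-lactamase reporter under heat shock response elements), plated overnight, then exposed to compounds 5 h at 37 C; LiveBLAzer B/G FRET substrate added, 2.5 h at room temperature, fluorescence intensity read.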
# [4] = qHTS assay to identify small molecule agonists of the peroxisome proliferator-activated receptor delta (PPARd) signaling pathway - cell viability counter screen (AID 743211); details: PPARd-bla HEK293H viability, CellTiter-Glo luminescence, 17 h; activity change, negative = cytotoxicity: at 62.6 µM (top of the series); note: potency is the fitted concentration of half-maximal effect; nearly all actives have a fitted effect of over 55% in size
# Outline: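 Counter screen for cytotoxicity run in parallel with the PPARd reporter screen. Beta-lactamase reporter HEK293H cells exposed to compounds 17 h; ATP-based CellTiter-Glo luminescence quantified viability.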
# [5] = biological target: Peroxisome proliferator-activated receptor delta (Homo sapiens) (UniProt Q03181); test: qHTS assay to identify small molecule agonists of the peroxisome proliferator-activated receptor delta (PPARd) signaling pathway (AID 743212; calls by dose curve; note: potency is the fitted concentration of half-maximal effect; for activation: % is set by controls: 0 for no effect and ±100 for the full control effect); details: HEK293H PPARd-UAS-bla, beta-lactamase FRET ratio, 17 h; activation: at 62.6 µM (top of the series) unless noted
# Outline: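 GeneBLAzer UAS-bla HEK293H cells carrying a PPARδ construct were exposed to compounds at 37 °C. Beta-lactamase activity was read by FRET fluorescence after 2 h at room temperature with LiveBLAzer B/G substrate.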
# [6] = qHTS assay to identify small molecule antagonists of the peroxisome proliferator-activated receptor delta (PPARd) signaling pathway - cell viability counter screen (AID 743213); details: PPARd-bla HEK293H viability, CellTiter-Glo luminescence, 17 h; viability change, negative = cytotoxic: at 62 µM (top of the series) unless noted; note: nearly all actives have a fitted effect of over 50% in size; note: potency is the fitted concentration of half-maximal effect
# Outline: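 PPARd-bla HEK293H cells were treated with compounds plus agonist L165041 (300 nM final) for 17 h at 37 C. Viability was then read in the same wells by CellTiter-Glo luminescence after 30 min at room temperature.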
# [7] = biological target: Bile acid receptor (Homo sapiens) (UniProt Q96RI1); test: qHTS assay to identify small molecule antagonists of the farnesoid-X-receptor (FXR) signaling pathway (AID 743217; active = well fitted inhibition curve with a large enough effect in the signal ratio in the repeat runs, not every such curve was filed as active; inconclusive = weak or mixed curves, or effect the other way; inactive = no such curve, though single readings can be large or run the other way; the % refers to the signal ratio; note: potency is the fitted concentration of half-maximal effect); details: HEK293T FXR-UAS-bla, beta-lactamase ratio, CDCA-stimulated, 16 h; activity change, negative = inhibition: at 62.6 µM (top of the series) unless noted
# Outline: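 Antagonist mode against 50 uM (final) chenodeoxycholic acid stimulation in FXR-bla HEK 293T cells, 16 h at 37 °C. Inhibition detected as reduced beta-lactamase activity via LiveBLAzer B/G FRET fluorescence after 2 h at room temperature.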
# [8] = qHTS assay to identify small molecule agonists of the farnesoid-X-receptor (FXR) signaling pathway - cell viability counter screen (AID 743218); details: FXR-bla HEK293T viability, CellTiter-Glo luminescence, 16 h; viability change, negative = cytotoxic: at 62.6 µM (top of the series) unless noted; note: potency is the fitted concentration of half-maximal effect; nearly all actives have a fitted effect of over 45% in size
# Outline: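 Cytotoxicity counter-screen run in parallel, same wells: FXR-UAS-bla HEK 293T cells dosed 16 h at 37 C, viability read by CellTiter-Glo luminescence after 30 min at room temperature.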
# [9] = biological target: Bile acid receptor (Homo sapiens) (UniProt Q96RI1); test: qHTS assay to identify small molecule agonists of the farnesoid-X-receptor (FXR) signaling pathway (AID 743220; active = well fitted activation curve with a large enough effect in the signal ratio in the repeat runs, not every such curve was filed as active; inconclusive = weak or mixed curves, or effect the other way; the % refers to the signal ratio; note: potency is the fitted concentration of half-maximal effect); details: HEK293T FXR-UAS-bla, beta-lactamase FRET ratio, 16 h; activation: at 62.6 µM (top of the series) unless noted
# Outline: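 Beta-lactamase reporter under UAS control in GeneBLAzer FXR HEK 293T cells (5000/well) measured with LiveBLAzer FRET substrate after 2 h at room temperature. Compound exposure lasted 16 h at 37C.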
# [10] = biological target: Vitamin D3 receptor (Homo sapiens) (UniProt P11473); test: qHTS assay to identify small molecule agonists of the vitamin D receptor (VDR) signaling pathway (AID 743222; calls by dose curve; note: % is set by controls: 0 for no effect and ±100 for the full control effect); details: HEK293T VDR-UAS-bla, beta-lactamase FRET ratio, 16 h; activation: at 63.5 µM (top of the series) unless noted
# Outline: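 Quantitative HTS agonist-mode screen: compounds in DMSO were pin-transferred onto VDR-bla cells and incubated 16 h at 37C, 5% CO2. Reporter activity was detected with LiveBLAzer B/G FRET substrate after 2 h at room temperature.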
# [11] = qHTS assay to identify small molecule that activate the aryl hydrocarbon receptor (AhR) signaling pathway - cell viability counter screen (AID 743086); note: nearly all actives have a fitted effect of over 45% in size; note: potency is the fitted concentration of half-maximal effect
# Outline: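 HepG2-AhR-luc (HG2L7.5c1) cells, 4000/well, treated 24 h at 37 C with compound; viability measured as CellTiter-Fluor fluorescence after 30 min in the same wells as the luciferase read.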
# [12] = qHTS assay to identify small molecule antagonists of the peroxisome proliferator-activated receptor gamma (PPARg) signaling pathway - cell viability counter screen (AID 743194); details: PPARg-bla HEK293H viability, CellTiter-Glo luminescence, 17 h, co-treated with 50 nM rosiglitazone; activity change, negative = cytotoxicity: at 62.6 µM (top of the series); note: potency is the fitted concentration of half-maximal effect; nearly all actives have a fitted effect of over 55% in size
# Outline: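 Cytotoxicity counter screen in PPARg-bla HEK293H cells, same wells as reporter assay. Compounds plus 50 nM rosiglitazone (final) for 17 h at 37 C, then viability read by CellTiter-Glo luminescence.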
# [13] = biological target: Peroxisome proliferator-activated receptor delta (Homo sapiens) (UniProt Q03181); test: qHTS assay to identify small molecule antagonists of the peroxisome proliferator-activated receptor delta (PPARd) signaling pathway (AID 743215; active = well fitted inhibition curve with a large enough effect in the signal ratio in the repeat runs, not every such curve was filed as active; inconclusive = weak or mixed curves, or effect the other way; inactive = no such curve, though single readings can be large or run the other way; the % refers to the signal ratio;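 note: cells stimulated with agonist L165041 at 300 nM final during compound exposure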; note: potency is the fitted concentration of half-maximal effect); details: HEK293H PPARd-UAS-bla, beta-lactamase FRET ratio, antagonist, 17 h; ratio activity, negative = inhibition: at 62 µM (top of the series) unless noted
# Outline: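 Inhibition of L165041-driven (300 nM final) PPARd signaling is scored in HEK293H UAS-bla cells. Exposure lasts 17 h at 37 C; beta-lactamase activity is then read by FRET substrate fluorescence after 2 h at room temperature.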
# [14] = qHTS assay to identify small molecule antagonists of the farnesoid-X-receptor (FXR) signaling pathway - cell viability counter screen (AID 743221; active = well fitted cell-killing curve with a large enough effect in the repeat runs, not every such curve was filed as active; inconclusive = weak or mixed curves, or effect the other way; inactive = no such curve, though single readings can be large or run the other way; note: potency is the fitted concentration of half-maximal effect; nearly all actives have a fitted effect of over 50% in size); details: FXR-bla HEK293T viability, CellTiter-Glo luminescence, 16 h; activity change, negative = cytotoxicity: at 62.6 µM (top of the series)
# Outline: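 Multiplexed counter screen: viability of FXR-bla HEK 293T cells under agonist stimulation by chenodeoxycholic acid (50 uM, final) and test compound for 16 h at 37 C, measured by CellTiter-Glo luminescence in the reporter wells.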
# [15] = biological target: Vitamin D3 receptor (Homo sapiens) (UniProt P11473); test: qHTS assay to identify small molecule antagonists of the vitamin D receptor (VDR) signaling pathway (AID 743223; active = well fitted inhibition curve with a large enough effect in the signal ratio in the repeat runs, not every such curve was filed as active; inconclusive = weak or mixed curves, or effect the other way; inactive = no such curve, though single readings can be large or run the other way; the % refers to the signal ratio; note: % is set by controls: 0 for no effect and ±100 for the full control effect); details: VDR-UAS-bla HEK293T, beta-lactamase FRET ratio, 16 h; activity change, negative = inhibition: at 61 µM (top of the series) unless noted
# Outline: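 Cells carrying a VDR-driven beta-lactamase reporter (VDR-bla) were co-treated with compound and 3 nM final 1alpha,25-dihydroxyvitamin D3 for 16 h at 37C; reporter activity was measured as FRET substrate fluorescence after 2 h at room temperature.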
# [16] = biological target: Peroxisome proliferator-activated receptor gamma (Homo sapiens) (UniProt P37231); test: qHTS assay to identify small molecule agonists of the peroxisome proliferator-activated receptor gamma (PPARg) signaling pathway (AID 743094; active = well fitted activation curve with a large enough effect in the signal ratio in the repeat runs, not every such curve was filed as active; inconclusive = weak or mixed curves, or effect the other way; inactive = no such curve, though single readings can be large or run the other way; the % refers to the signal ratio; note: potency is the fitted concentration of half-maximal effect); details: HEK293H PPARg-UAS-bla, beta-lactamase FRET ratio, 17 h; activation: at 57 µM (top of the series) unless noted
# Outline: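 Quantitative HTS agonist mode: stable HEK293H line with UAS-beta-lactamase reporter under PPARg control, 17 h compound exposure at 37C, fluorescence after 1 h FRET substrate loading at room temperature.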
# [17] = qHTS assay for small molecule agonists of the antioxidant response element (ARE) signaling pathway (AID 743202; active = well fitted activation curve with a large enough effect in the signal ratio in the repeat runs, not every such curve was filed as active; inconclusive = weak or mixed curves, or effect the other way; inactive = no such curve, though single readings can be large or run the other way; the % refers to the signal ratio; note: potency is the fitted concentration of half-maximal effect); details: HepG2 ARE-bla reporter, beta-lactamase FRET, 16 h; activation: at 73.3 µM (top of the series) unless noted
# Outline: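 ARE-bla HepG2 cells (beta-lactamase reporter under the antioxidant response element), plated 5 hours, then exposed to compounds 16 hours at 37 C. LiveBLAzer B/G FRET substrate added for 2 hours at room temperature; fluorescence intensity read.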
# [18] = qHTS assay for small molecule activators of the heat shock response signaling pathway - cell viability counter screen (AID 743209); details: HSE-bla HeLa viability, CellTiter-Glo luminescence, 5 h; activity change, negative = cytotoxicity: at 62.6 µM (top of the series); note: potency is the fitted concentration of half-maximal effect; nearly all actives have a fitted effect of over 50% in size
# Outline: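 First, HSE-bla HeLa cells were seeded at 1500 cells/well and kept overnight at 37 C. Next, compounds were pinned in and incubated 5 h. After the FRET substrate step, CellTiter-Glo was added and luminescence read 30 min later.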
# Tags give direction and shape of the fitted curve or compound fluorescence and quenching.
# Chain of UniProt P11473 (P11473 whole entry, looked up): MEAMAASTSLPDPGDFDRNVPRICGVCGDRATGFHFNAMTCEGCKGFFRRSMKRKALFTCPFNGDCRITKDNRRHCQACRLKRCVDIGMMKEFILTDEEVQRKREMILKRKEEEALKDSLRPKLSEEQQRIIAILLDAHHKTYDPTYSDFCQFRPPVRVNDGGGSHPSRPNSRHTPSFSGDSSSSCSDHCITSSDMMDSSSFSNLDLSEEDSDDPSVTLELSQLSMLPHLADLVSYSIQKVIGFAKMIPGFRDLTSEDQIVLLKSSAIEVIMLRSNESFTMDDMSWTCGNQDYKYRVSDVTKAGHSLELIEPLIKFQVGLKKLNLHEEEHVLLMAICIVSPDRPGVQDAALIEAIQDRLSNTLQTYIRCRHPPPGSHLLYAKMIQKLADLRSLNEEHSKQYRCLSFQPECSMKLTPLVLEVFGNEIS
# Chain of UniProt Q96RI1 (Q96RI1 whole entry, looked up): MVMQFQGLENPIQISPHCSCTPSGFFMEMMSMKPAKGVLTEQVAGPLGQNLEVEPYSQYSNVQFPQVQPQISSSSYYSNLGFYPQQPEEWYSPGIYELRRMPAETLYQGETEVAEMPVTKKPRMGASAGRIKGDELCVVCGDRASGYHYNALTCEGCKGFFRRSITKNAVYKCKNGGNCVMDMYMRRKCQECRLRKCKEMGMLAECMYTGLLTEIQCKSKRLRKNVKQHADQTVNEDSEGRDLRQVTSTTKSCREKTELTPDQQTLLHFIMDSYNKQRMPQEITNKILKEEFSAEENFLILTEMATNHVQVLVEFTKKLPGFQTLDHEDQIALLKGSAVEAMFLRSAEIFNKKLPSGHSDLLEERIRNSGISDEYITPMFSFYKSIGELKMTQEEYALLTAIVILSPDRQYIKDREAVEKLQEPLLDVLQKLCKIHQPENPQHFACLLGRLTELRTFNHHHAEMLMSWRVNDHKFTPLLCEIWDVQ
# Chain of UniProt P37231 (P37231 whole entry, looked up): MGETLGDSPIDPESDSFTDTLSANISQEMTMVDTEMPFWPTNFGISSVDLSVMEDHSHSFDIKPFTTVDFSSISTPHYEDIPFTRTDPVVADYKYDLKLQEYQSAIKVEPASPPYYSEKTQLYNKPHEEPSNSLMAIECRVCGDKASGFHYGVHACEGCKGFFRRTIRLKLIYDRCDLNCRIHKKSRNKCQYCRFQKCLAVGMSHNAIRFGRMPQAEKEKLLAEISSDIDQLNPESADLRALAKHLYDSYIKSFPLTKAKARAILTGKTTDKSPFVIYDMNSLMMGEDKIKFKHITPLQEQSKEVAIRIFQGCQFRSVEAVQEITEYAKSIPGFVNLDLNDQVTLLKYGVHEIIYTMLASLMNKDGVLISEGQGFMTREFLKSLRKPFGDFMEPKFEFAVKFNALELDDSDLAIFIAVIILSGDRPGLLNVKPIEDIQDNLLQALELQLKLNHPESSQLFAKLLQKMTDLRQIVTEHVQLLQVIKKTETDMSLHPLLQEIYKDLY
# Chain of UniProt Q03181 (Q03181 whole entry, looked up): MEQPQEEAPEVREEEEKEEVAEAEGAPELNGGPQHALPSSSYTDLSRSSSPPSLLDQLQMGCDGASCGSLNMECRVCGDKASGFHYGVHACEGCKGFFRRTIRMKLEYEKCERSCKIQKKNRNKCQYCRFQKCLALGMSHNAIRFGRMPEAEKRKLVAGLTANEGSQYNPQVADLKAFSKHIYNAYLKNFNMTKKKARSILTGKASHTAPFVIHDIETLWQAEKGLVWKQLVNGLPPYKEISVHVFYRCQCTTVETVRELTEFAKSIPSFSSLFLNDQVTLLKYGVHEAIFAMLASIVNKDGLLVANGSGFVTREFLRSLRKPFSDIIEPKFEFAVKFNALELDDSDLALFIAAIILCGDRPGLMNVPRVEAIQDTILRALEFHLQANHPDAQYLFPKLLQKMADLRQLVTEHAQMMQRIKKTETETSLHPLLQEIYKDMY
# Chain of UniProt P35869 (P35869 whole entry, looked up): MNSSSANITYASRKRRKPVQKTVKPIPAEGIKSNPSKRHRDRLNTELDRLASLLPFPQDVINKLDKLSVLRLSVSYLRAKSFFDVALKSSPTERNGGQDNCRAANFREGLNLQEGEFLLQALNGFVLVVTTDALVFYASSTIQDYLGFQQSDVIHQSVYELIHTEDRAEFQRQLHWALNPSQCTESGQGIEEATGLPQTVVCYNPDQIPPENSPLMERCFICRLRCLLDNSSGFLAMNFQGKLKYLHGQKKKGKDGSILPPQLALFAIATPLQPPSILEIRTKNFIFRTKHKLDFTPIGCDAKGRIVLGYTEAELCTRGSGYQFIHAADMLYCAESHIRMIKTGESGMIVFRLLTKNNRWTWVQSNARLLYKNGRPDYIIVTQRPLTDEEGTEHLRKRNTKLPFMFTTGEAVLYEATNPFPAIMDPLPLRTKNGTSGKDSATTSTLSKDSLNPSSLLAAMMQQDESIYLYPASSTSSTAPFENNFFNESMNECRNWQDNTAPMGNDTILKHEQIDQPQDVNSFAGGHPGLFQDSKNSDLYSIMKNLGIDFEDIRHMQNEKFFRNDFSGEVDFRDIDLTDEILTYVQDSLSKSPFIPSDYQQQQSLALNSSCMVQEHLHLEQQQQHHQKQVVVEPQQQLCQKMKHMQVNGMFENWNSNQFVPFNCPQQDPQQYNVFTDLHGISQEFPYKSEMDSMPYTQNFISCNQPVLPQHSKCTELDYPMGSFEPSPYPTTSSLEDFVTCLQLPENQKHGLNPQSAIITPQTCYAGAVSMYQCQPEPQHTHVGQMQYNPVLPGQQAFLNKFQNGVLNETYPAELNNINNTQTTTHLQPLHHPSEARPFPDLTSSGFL
structure (smiles),measurement,setting,value
Cc1cccc(N(C)C(=S)Oc2ccc3ccccc3c2)c1,Potency,[1],"inconclusive: 12.7 µM [activator, partial curve, poor fit] and inconclusive: 77 µM [activator, partial curve]"
same,Potency,[2],"inconclusive: 7.76 µM [inhibitor, partial curve, poor fit]"
same,"ratio activity, negative = inhibition",[2],inconclusive: -15.8%
same,Potency,[3],inconclusive: 46.2 µM
same,Potency,[4],"inconclusive: 30.9 µM [cytotoxic, partial curve] and inconclusive: 33.5 µM [cytotoxic, single point]"
same,Potency,[5],"inconclusive: 54.9 µM [rising, single point]"
same,activation,[5],inconclusive: -0.67%
same,Potency,[6],"inconclusive: 17.4 µM [cytotoxic, full curve, poor fit]"
same,Potency,[7],"inconclusive: 24.5 µM [inhibitor, full curve] and inactive"
same,Potency,[8],"inconclusive: 34.7 µM [cytotoxic, partial curve, poor fit]"
same,activation,[9],inconclusive: 3.92%
same,activation,[10],inconclusive: 17.6%
Cc1cn([C@H]2C[C@H](F)[C@@H](CO)O2)c(=O)[nH]c1=O,Potency,[11],inactive
CN(Cc1ccc(C(C)(C)C)cc1)Cc1cccc2ccccc12,Potency,[11],"inconclusive: 33.5 µM [falling, single point]"
same,Potency,[2],"inconclusive: 33.5 µM [activator, single point]"
same,Potency,[12],"inconclusive: 33.5 µM [cytotoxic, partial curve, poor fit]"
same,Potency,[5],"inconclusive: 33.5 µM [partial curve, poor fit]"
same,Potency,[6],active: 23.7 µM
same,Potency,[13],inactive
same,"activity change, negative = inhibition",[7],inconclusive: -41.5%
same,Potency,[8],"inconclusive: 29.8 µM [cytotoxic, single point]"
same,Potency,[14],"inconclusive: 26.6 µM [falling, partial curve]"
same,Potency,[15],inactive
CO[Si](CCCOCC1CO1)(OC)OC (stereo unspecified),Potency,[11],inactive
same,Potency,[16],"inconclusive: 43.6 µM [rising, partial curve]"
same,"ratio activity, negative = inhibition",[2],inconclusive: -17.2%
same,activation,[17],inconclusive: 24.3%
same,Potency,[5],"inconclusive: 8.71 µM [rising, full curve, poor fit]"
same,"viability change, negative = cytotoxic",[6],inconclusive: -36.1% [cytotoxic]
same,Potency,[7],"inconclusive: 54.5 µM [rising, partial curve, poor fit]"
same,"activity change, negative = inhibition",[7],inconclusive: 4.18%
same,Potency,[9],"inconclusive: 3.09 µM [rising, partial curve]"
same,"activity change, negative = inhibition",[15],inconclusive: -2.62% and inconclusive: -26%
COCCCC/C(=N\OCCN)c1ccc(C(F)(F)F)cc1,Potency,[11],"inconclusive: 15 µM [falling, partial curve]"
same,activation,[16],inconclusive: -16.9%
same,"ratio activity, negative = inhibition",[2],inconclusive: 0.814%
same,Potency,[17],"inconclusive: 13.3 µM [falling, partial curve]"
same,Potency,[4],active: 23.7 µM
same,Potency,[8],"inconclusive: 11.9 µM [cytotoxic, partial curve, poor fit]"
same,Potency,[14],"inconclusive: 26.6 µM [falling, single point]"
same,"activity change, negative = inhibition",[15],inconclusive: 4.43%
CN1CCC(N(Cc2cccs2)c2ccccc2)CC1,Potency,[11],"inconclusive: 11.9 µM [falling, partial curve, poor fit]"
same,"ratio activity, negative = inhibition",[2],inconclusive: -17.6%
same,activation,[17],inconclusive: -16.9%
same,Potency,[18],"inconclusive: 33.5 µM [cytotoxic, single point]"
same,Potency,[3],inconclusive: 25.1 µM
same,Potency,[4],"inconclusive: 33.5 µM [cytotoxic, single point]"
same,Potency,[6],"inconclusive: 16.8 µM [cytotoxic, partial curve, poor fit]"
same,Potency,[13],inconclusive: 33.5 µM [single point]
same,Potency,[8],"inconclusive: 21.1 µM [cytotoxic, partial curve, poor fit]"
same,Potency,[14],"inconclusive: 33.5 µM [falling, single point]"
